# Reference: publication PMC4336329 (PLoS ONE, 2015)
# Out of some 310,000 compounds screened, about 2,200 (0.71%) showed an effect of 50% or more. Effects have a minus sign here. Some of the results follow.
# Molecular target: human ether-à-go-go-related gene (hERG) potassium channel (human, UniProt Q12809)
# Assay: primary screen, population patch clamp on CHO cells stably expressing hERG
# Chain of human ether-à-go-go-related gene (hERG) potassium channel (Q12809 whole entry, looked up): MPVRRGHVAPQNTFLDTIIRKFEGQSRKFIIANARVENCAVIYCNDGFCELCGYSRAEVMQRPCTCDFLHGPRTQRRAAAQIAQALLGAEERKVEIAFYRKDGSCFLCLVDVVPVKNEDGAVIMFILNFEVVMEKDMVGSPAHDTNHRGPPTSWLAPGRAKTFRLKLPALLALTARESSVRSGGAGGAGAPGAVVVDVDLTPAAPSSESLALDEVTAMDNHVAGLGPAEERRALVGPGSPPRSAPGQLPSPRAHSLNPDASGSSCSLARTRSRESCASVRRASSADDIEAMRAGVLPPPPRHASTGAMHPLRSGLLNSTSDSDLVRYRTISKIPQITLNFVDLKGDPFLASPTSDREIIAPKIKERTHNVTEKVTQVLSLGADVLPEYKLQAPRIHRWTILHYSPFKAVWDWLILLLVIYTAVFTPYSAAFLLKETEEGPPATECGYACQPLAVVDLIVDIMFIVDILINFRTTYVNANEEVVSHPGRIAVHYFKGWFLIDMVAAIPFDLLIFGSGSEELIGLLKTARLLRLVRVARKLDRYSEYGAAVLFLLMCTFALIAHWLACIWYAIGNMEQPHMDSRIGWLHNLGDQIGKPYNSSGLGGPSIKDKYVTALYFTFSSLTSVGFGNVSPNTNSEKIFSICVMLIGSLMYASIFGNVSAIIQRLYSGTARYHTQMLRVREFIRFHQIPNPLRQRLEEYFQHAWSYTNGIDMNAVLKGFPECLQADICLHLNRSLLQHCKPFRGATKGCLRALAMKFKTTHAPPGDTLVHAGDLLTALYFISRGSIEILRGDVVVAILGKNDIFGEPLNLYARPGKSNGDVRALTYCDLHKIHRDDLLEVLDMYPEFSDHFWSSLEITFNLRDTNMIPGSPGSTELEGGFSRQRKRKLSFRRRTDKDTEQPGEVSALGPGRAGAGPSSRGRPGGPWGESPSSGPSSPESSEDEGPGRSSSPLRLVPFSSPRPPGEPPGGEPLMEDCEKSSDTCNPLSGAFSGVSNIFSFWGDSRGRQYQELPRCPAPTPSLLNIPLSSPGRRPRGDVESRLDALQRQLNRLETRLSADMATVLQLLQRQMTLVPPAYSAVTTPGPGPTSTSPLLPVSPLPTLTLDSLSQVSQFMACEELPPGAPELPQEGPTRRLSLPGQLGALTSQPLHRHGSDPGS
row,SMILES,"hERG current change (%, negative = inhibition) at 1uM [%]"
1,CCCCOCC(O)Cn1c(C)nc2ccccc21.O=C(O)C(=O)O (centres unmarked),7.83
2,C=CCN1c2ccccc2[C@]23C[C@@H](C(=O)OC)N(C(=O)c4ccc(Br)cc4)C2=NC(C(=O)OC)=C(C(=O)OC)[C@H]13,6.14
3,CSc1ccccc1OCc1cc(C(=O)NCCCc2ccccc2)no1,19
4,COc1cccc(CCNCc2ccc(SC)cc2)c1.O=C(O)C(=O)O,-19.5
5,CCOC(=O)c1c(-c2ccc(-c3ccccc3)cc2)csc1NC(=O)c1cccc(N2C(=O)CCC2=O)c1,7.58
6,Cc1ccc(C(=O)N(Cc2ccc3c(c2)OCO3)Cc2nc3ccccc3c(=O)[nH]2)cc1,8.32
7,COC(=O)C1=C(CS(=O)(=O)c2cc(Cl)ccc2OC)NC(=O)NC1c1ccc(O)c(OC)c1 (centres unmarked),16.9
8,O=S(=O)(NCCn1ccc2ccccc21)c1ccccc1,-12.6
9,CC1CCc2nc(NC(=O)CN3CCN(Cc4ccc5c(c4)OCO5)CC3)sc2C1 (centres unmarked),-6.64
10,COC(=O)c1cccc(C(=O)Nc2ccc(C)cc2)n1,9.98
11,O=C(NC1CC1)C1CCN(S(=O)(=O)c2ccc(Cl)cc2)CC1,13.2
12,CCN(C(=O)Cc1cccs1)c1nnc(-c2cccnc2)s1,3.69
13,CC(OC(=O)COc1ccc(Nc2ccccc2)cc1)C(=O)N(C)c1ccccc1 (centres unmarked),15.1
14,COc1cccc(NC(=O)CN(C)C(=O)CCc2nc3sc4c(c3c(=O)[nH]2)CCCC4)c1,6.77
15,CCOc1ccc(CN(C)C(=O)c2ccc(=O)[nH]c2)cc1,12.9
16,Cc1ccc(NC(=O)c2cc3c(s2)CCCC3)cc1S(=O)(=O)Nc1ccccc1Cl,7.04
17,CCOC(=O)CCNC(=O)N1CCCC(N2CCN(c3ccc(OC)cc3)CC2)C1 (centres unmarked),16.4
18,Cn1cc(/C=C(\NC(=O)c2ccccc2Cl)C(=O)NCCCN2CCOCC2)c2ccccc21,17.5
19,CNc1c(N=Cc2cccnc2)c(=O)n(C)c(=O)n1C,11.9
20,CCCC(=O)NCCc1nc2ccccc2n1C,17.6
21,CC(C)n1ncc2c(C(=O)N3CCN(c4ccccc4)CC3)cc(-c3ccccc3)nc21,19.3
22,CCCOc1ccc(C2c3c(oc4cc(C)c(C)cc4c3=O)C(=O)N2CCCN(C)C)cc1 (centres unmarked),-8.32
23,CCn1c(=O)cc(OCC(=O)NCc2cccs2)c2ccccc21,6.29
24,COc1ccc(NS(=O)(=O)c2cccc(C(=O)NCC3(N4CCCCC4)CCCCC3)c2)cc1,-4.37
25,CCN(CCO)C(=S)Nc1cc(C(=O)OC)ccc1C(=O)OC,-12.8
26,CCOc1ccc2nc(N3CCCC(C(=O)NCCCN4CCOCC4)C3)sc2c1 (centres unmarked),-1.79
27,Cc1ccc(NC(=O)CSc2nc3ccccc3c3nc(CCc4c(C)n[nH]c4C)nn23)cc1F,3.64

row,SMILES,"hERG current change (%, negative = inhibition) at 1uM [%]"
1,O=C1CN(c2ccccc2)C(=S)N1C(=O)c1ccccc1,13.5
2,CCCN(C(=O)CSc1nnc(-c2ccoc2C)n1N)C1CCS(=O)(=O)C1 (centres unmarked),6.45
3,CC(C)CNC(=O)c1c(N)n(/N=C/c2ccccn2)c2nc3ccccc3nc12,16.6
4,CS(=O)(=O)N1CCC(C(=O)NCCC2=CCCCC2)CC1,8.6
5,Cc1[nH]c2ccccc2c1C(=O)C(C)OC(=O)c1ccc(NC(=O)CC#N)cc1 (centres unmarked),-5.19
6,O=C(CN1C(=O)S/C(=C\c2ccccc2F)C1=O)NCCCn1ccnc1,6.82
7,Cc1ccc(N2C(=O)c3cccc([N+](=O)[O-])c3C2=O)cc1C,9.91
8,CCOCCCNC(=O)/C(C#N)=C/c1cc(OC)c(O)c([N+](=O)[O-])c1,9.2
9,CCCC1C(=O)N(c2ccccc2)C1c1ccccc1 (centres unmarked),5.89
10,O=C(CSc1nnnn1-c1cccc2c1CCCC2)N1CCCC1,-5.05
11,Oc1c(C(c2ccc(F)cc2)N2CCc3ccccc3C2)sc2ncnn12 (centres unmarked),13.5
12,O=C(COC(=O)c1ccccc1NC(=O)c1ccccc1)c1ccc([N+](=O)[O-])cc1,3.47
13,COc1ccc(NC(=S)N2CCN(S(C)(=O)=O)CC2)cc1,12.2
14,CCn1cc(C2CC(=O)NC2=O)c2ccccc21 (centres unmarked),9.56
15,COC(=O)c1ccc(NC(=O)Nc2ccc(F)cc2)cc1,1.81
16,CS(=O)(=O)c1ccc(C(=O)OCC(=O)Nc2cccc(S(=O)(=O)N3CCCC3)c2)cc1,2.79
17,Cc1cc(/C=C2/SC(=S)N(c3cccc(C(F)(F)F)c3)C2=O)c(C)n1-c1cccnc1,7.53
18,CCCCCCCNC(=O)C1CC(=O)N(C)C(=Nc2ccc(OC)cc2)S1 (centres unmarked),16.1
19,O=C(CSc1nc2ccc(NC(=O)c3ccccc3C(=O)O)cc2s1)Nc1c(Cl)cccc1Cl,17
20,COc1ccc(-c2cc(C(F)F)n3ncc(C(=O)N4CCCCC4)c3n2)cc1,7.09
21,Cc1nc(N2CCN(S(=O)(=O)c3ccccc3C#N)CC2)c2c(-c3cccs3)csc2n1,-4.31
22,CCOC(=O)c1ncn2c1[C@@H]1CCNC1C(=O)c1cc(OC)ccc1-2 (some centres unmarked),-27.7
23,Cc1nc2ncnn2c(C)c1C/C=C/c1ccccc1,5.44
24,Cc1ccc(CN2CCN(C(=O)c3cccc4ccccc34)CC2)cc1.O=C(O)C(=O)O,12.5
25,CCOc1cc(/C=N/NC(=O)c2ccc(CN3CCOCC3)cc2)ccc1OC,1.6
26,COc1cccc(NC(=O)c2ccccc2NS(C)(=O)=O)c1,-5.46
